{"source": "PubChem BioAssay AID686979", "about": "(National Center for Advancing Translational Sciences (NCATS), 2013)", "note": "Screen size: about 420,000 compounds; about 50,000 (12%) were called active. The shares of active, inactive and inconclusive entries below differ from those in the screen. Calls come from the whole dose curve; as a rule, active = well fitted inhibition curve with a large enough effect; inconclusive = small, poorly fitted or top-dose-only effect; inactive = flat fitted curve, though single readings scatter. Potencies of inconclusive entries are left out as doubtful fits. % is set by controls: 0 for no effect and ±100 for the full control effect; potency is the fitted concentration of half-maximal effect; tags give direction and shape of the fitted curve.", "data": [{"assay": "qHTS for Inhibitors of human tyrosyl-DNA phosphodiesterase 1 (TDP1): qHTS in cells in presence of CPT; note: nearly all actives have a fitted effect of over 55% in size", "settings": "chicken DT40 Tdp1-/-;hTDP1 cells + 20 nM CPT, ATP luminescence, 48 h; activity change, negative = growth inhibition: at 46.2 µM (top of the series)", "in_short": "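Chicken DT40 Tdp1-/- cells complemented with human TDP1, 400 cells/well, exposed to compounds plus 20 nM camptothecin for at least 48 h at 37 C; viability read as ATP content by CellTiter-Glo luminescence.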", "values": [{"smiles": "COc1ccc(C(=O)c2[nH]c(N)c(C(=O)NCCc3c[nH]c4ccccc34)c2-c2ccc(Br)cc2)cc1", "Potency": "inconclusive [inhibitor, single point]"}, {"smiles": "COc1ccc(S(=O)(=O)N2CCCCCC2)cc1NC(=O)CN1C(=O)NC(C)(c2ccccc2)C1=O", "note": "(configuration not stated)", "Potency": "inconclusive [inhibitor, single point]"}, {"smiles": "Cc1ccc(Cl)cc1Nc1nc(-c2cccnc2)cs1", "Potency": "inconclusive [inhibitor, single point]"}, {"smiles": "C=CCN1C(=O)/C(=C2/Sc3ccccc3N2CC)SC1=S", "activity change, negative = growth inhibition": "inactive: -23.4%"}, {"smiles": "CCCC(=O)Nc1ccc(C(=O)Nc2cc(C(F)(F)F)ccc2Cl)cc1", "Potency": "inconclusive [inhibitor, single point]"}, {"smiles": "Cc1ccc(O)c(Nc2ncnc3ccc([N+](=O)[O-])cc23)c1", "Potency": "inconclusive [inhibitor, partial curve, poor fit]"}, {"smiles": "Cc1noc2ncnc(N3CCCC(C(=O)Nc4cc(F)ccc4F)C3)c12", "note": "(configuration not stated)", "Potency": "active: 13 µM"}, {"smiles": "O=[N+]([O-])c1ccc(/C=C2\\C=Cc3ccccc32)cc1", "Potency": "active: 8.91 µM"}, {"smiles": "CN(C)C(=O)CCc1ccc2c3c([nH]c2c1)[C@]1(CCc2ccccc2)[C@@H](C(=O)N2CCCCC2)C[C@H](CC(=O)NCc2ccco2)C(=O)N1CC3", "activity change, negative = growth inhibition": "inactive: -12.8%"}, {"smiles": "CC(C)(C)CN1CCN(CC#Cc2ccccc2)CC1CCO", "note": "(configuration not stated)", "Potency": "inconclusive [inhibitor, partial curve]"}, {"smiles": "Cc1cc(C)c(S(=O)(=O)N2CCCC(C(=O)NCc3cccnc3)C2)c(C)c1", "note": "(configuration not stated)", "Potency": "active: 16.4 µM"}, {"smiles": "COc1cc2c(cc1NC(=O)c1cc(-c3ccncc3)nc3ccccc13)oc1ccccc12", "Potency": "active: 20.6 µM"}, {"smiles": "CC1(C)Cc2c(cnn2-c2ccc(F)cc2)C(NC(=O)C2=NNC(=O)CC2)C1", "note": "(configuration not stated)", "Potency": "active: 14.6 µM"}, {"smiles": "Cc1ccc(SCc2nc(-c3ccncc3)no2)cc1", "Potency": "active: 5.8 µM"}, {"smiles": "O=C(CC1C(=O)NCCN1Cc1ccc(-c2ccccc2)cc1)NCCOc1cccnc1", "note": "(configuration not stated)", "Potency": "inconclusive [inhibitor, single point]"}, {"smiles": "CC(C)OC(=O)c1cccc(C(=O)Oc2ccc(Br)cc2)n1", "activity change, negative = growth inhibition": "inconclusive: -34.5% [inhibitor]"}, {"smiles": "Cc1ccc(S(=O)(=O)/N=C(/NC(=S)Nc2cccc(C)c2)c2ccccc2)cc1", "activity change, negative = growth inhibition": "inconclusive: -33.7% [inhibitor]"}, {"smiles": "COc1ccc(CN2CCC(Oc3ccc(C(=O)N4CCCCC4)cc3)CC2)cc1C", "Potency": "inconclusive [inhibitor, single point]"}, {"smiles": "COc1ccc(OC)c(NC(=O)c2cc(-c3ccc(F)cc3OC(C)C)n[nH]2)c1", "Potency": "active: 16.4 µM"}, {"smiles": "Cc1c(C(=O)c2ccccc2)c2ccccn2c1CCc1ccccn1", "Potency": "inconclusive [inhibitor, single point]"}, {"smiles": "COCCNc1nc2cc(-c3ccc(C)cc3)sc2c(=O)n1C", "Potency": "inconclusive [inhibitor, single point]"}, {"smiles": "COCC(C)NC(=O)c1ccc2nc(-c3ccccc3)c(-c3ccccc3)nc2c1", "note": "(configuration not stated)", "Potency": "inconclusive [inhibitor, single point]"}, {"smiles": "O=C(COC(=O)c1cc(=O)[nH]c(=O)[nH]1)NCc1ccccc1", "activity change, negative = growth inhibition": "inactive: 5.44%"}, {"smiles": "CCc1ccc2[nH]c(=O)c(CN(CCCO)C(=O)NCc3ccccc3)cc2c1", "activity change, negative = growth inhibition": "inactive: -19%"}, {"smiles": "CCOc1ncccc1C(=O)NCCCSc1ccccc1", "activity change, negative = growth inhibition": "inactive: -23.4%"}, {"smiles": "COc1cc(C(C)=O)ccc1OCC(O)CN1CCN(c2ccc(C)cc2C)CC1", "note": "(configuration not stated)", "Potency": "inconclusive [inhibitor, single point]"}, {"smiles": "Cn1nc(C(C)(C)C)cc1C(=O)N1CCCC(C)(C(=O)NS(=O)(=O)C2CC2)C1", "note": "(configuration not stated)", "Potency": "active: 6.51 µM"}, {"smiles": "Cc1cc2nc(NC(=O)C3(C)CCN3C(=O)C(C)C)[nH]c2cc1C", "note": "(configuration not stated)", "activity change, negative = growth inhibition": "inactive: -15.5%"}, {"smiles": "Cc1[nH]c(=O)[nH]c(=O)c1/C=N/NC(=O)[C@@H](N)CC(C)C", "activity change, negative = growth inhibition": "inactive: -2.49%"}, {"smiles": "Cc1cc(Cl)ccc1NC(=O)C1CCCN1S(=O)(=O)c1ccc2c(c1)CCCC(=O)N2", "note": "(configuration not stated)", "Potency": "active: 14.6 µM"}, {"smiles": "CC1(Br)C(Sc2ccccc2[N+](=O)[O-])=Nc2ccccc21", "note": "(configuration not stated)", "Potency": "active: 20.6 µM"}, {"smiles": "Cc1ccc(-c2noc(-c3ccc(NC4CCCC4)c([N+](=O)[O-])c3)n2)cc1", "activity change, negative = growth inhibition": "inactive: -28.8%"}, {"smiles": "CCc1ccc2c(c1)C1(NN=C(c3ccccc3)S1)C(=O)N2", "note": "(configuration not stated)", "Potency": "active: 2.91 µM"}, {"smiles": "O=[N+]([O-])c1ccc(C(=S)N2CCN(Cc3ccccc3)CC2)cc1", "Potency": "inconclusive [inhibitor, single point]"}, {"smiles": "CNC(=S)N1CCN(c2ccc(Cl)c(Cl)c2)CC1", "Potency": "active: 23.1 µM"}, {"smiles": "O=C(N/C(=C\\c1ccc(Br)cc1)C(=O)N1CCCC1)c1cccs1", "Potency": "inconclusive [inhibitor, single point]"}, {"smiles": "O=c1c2ccccc2oc2ccc(NCCCN3CCOCC3)cc12", "Potency": "inconclusive [inhibitor, single point]"}, {"smiles": "COC(=O)c1ccc2nc(-c3ccc(F)cc3)c(Cc3ccsc3)n2c1", "Potency": "inconclusive [inhibitor, partial curve]"}, {"smiles": "Cc1cc(-n2c(SCc3ccccc3F)nc3[nH]ncc3c2=O)ccc1Cl", "Potency": "inconclusive [inhibitor, single point]"}, {"smiles": "C[C@H](CO)N1C[C@H](C)[C@@H](CN(C)Cc2ccc(Cl)c(Cl)c2)Oc2c(NC(=O)CCC(F)(F)F)cccc2C1=O", "Potency": "active: 18.4 µM"}, {"smiles": "CCOc1cc(-c2cc(-c3ccc(OC)cc3)nc(N)c2C#N)ccc1O", "Potency": "inconclusive [inhibitor, single point]"}, {"smiles": "CCCCOc1ccc(Cl)cc1CSc1nnc(C)n1N", "activity change, negative = growth inhibition": "inactive: -29.5%"}, {"smiles": "CCc1c(C)sc2c1CCN(C(=O)Nc1ccccc1Cl)C2c1ccc(OC)cc1", "note": "(configuration not stated)", "Potency": "inconclusive [inhibitor, single point]"}, {"smiles": "O=C(NCC(c1ccco1)N1CCc2ccccc2C1)c1ccccc1", "note": "(configuration not stated)", "Potency": "inconclusive [inhibitor, single point]"}, {"smiles": "Cc1ccccc1OCC(=O)Nc1ccc(N2CCOCC2)cc1N1CCOCC1", "Potency": "inconclusive [inhibitor, single point]"}, {"smiles": "CC(C)(C)c1ccc(OCC(O)CNC(=O)c2ccccc2C(=O)O)cc1", "note": "(configuration not stated)", "activity change, negative = growth inhibition": "inactive: -24.7%"}, {"smiles": "COc1ccccc1NS(=O)(=O)c1cc(NC(=O)c2ccccc2C)ccc1N1CCOCC1", "Potency": "inconclusive [inhibitor, single point]"}, {"smiles": "O=C(OC1CCOC1=O)c1ccc(Cl)c(S(=O)(=O)N2CCOCC2)c1", "note": "(configuration not stated)", "activity change, negative = growth inhibition": "inactive: -9.79%"}, {"smiles": "CS(=O)(=O)c1ncc(N(Cc2ccco2)Cc2cccs2)c(C(=O)Nc2ccccc2F)n1", "Potency": "inconclusive [inhibitor, single point]"}, {"smiles": "CC1CN(C(=O)COC(=O)c2cncc(Br)c2)CC(C)O1", "note": "(configuration not stated)", "activity change, negative = growth inhibition": "inactive: -5.32%"}, {"smiles": "Cc1cccc(C)c1N=Cc1c(O)n(-c2nccs2)c(=O)c2ccccc12", "Potency": "active: 14.6 µM"}, {"smiles": "COC(=O)c1cc(=O)nc2sccn12", "activity change, negative = growth inhibition": "inactive: -4.68%"}, {"smiles": "CC(/C=C1\\NC(=S)NC1=O)=C\\c1ccccc1", "Potency": "inconclusive [inhibitor, single point]"}, {"smiles": "Cc1ccc(N(CC(=O)N/N=C/c2cc(C)n(-c3ccccc3)c2C)S(C)(=O)=O)c(C)c1", "activity change, negative = growth inhibition": "inconclusive: -34.6% [inhibitor]"}, {"smiles": "Cc1cc(Cl)ccc1OCC(O)CNCCc1ccc(S(N)(=O)=O)cc1", "note": "(configuration not stated)", "Potency": "inconclusive [inhibitor, partial curve, poor fit]"}, {"smiles": "COc1ccc(CNC(=S)NCc2ccc(F)cc2)cc1OC", "activity change, negative = growth inhibition": "inactive: -16.8%"}, {"smiles": "COc1cccc(C=C2Cc3ccccc3C2=O)c1", "activity change, negative = growth inhibition": "inactive: 0.908%"}, {"smiles": "CCCCn1c2c(c(=O)n(C)c1=O)C(c1ccc(OC)cc1)N1CCCCCC1=N2", "note": "(configuration not stated)", "Potency": "inconclusive [inhibitor, single point]"}, {"smiles": "CC(C)c1ccc(-c2nn(-c3ccccc3)cc2C2C(C#N)=C(N)OC3=C2C(=O)CC(C)(C)C3)cc1", "note": "(configuration not stated)", "Potency": "inconclusive [inhibitor, single point]"}, {"smiles": "O=C1OCC(c2ccccc2)=C1c1ccccc1[N+](=O)[O-]", "activity change, negative = growth inhibition": "inactive: -10.5%"}, {"smiles": "CCOc1ccc(C(C)=O)cc1COc1ccc(C)nc1[N+](=O)[O-]", "Potency": "inconclusive [inhibitor, single point]"}, {"smiles": "O=[N+]([O-])c1cccc(/C(=N/N=C/c2ccccc2Br)C23CN4CN(CN(C4)C2)C3)c1", "Potency": "inconclusive [inhibitor, partial curve]"}, {"smiles": "O=C(NCc1ccc(F)cc1)c1cc(C2CCCCN2S(=O)(=O)c2cccc3cccnc23)on1", "note": "(configuration not stated)", "Potency": "inconclusive [inhibitor, partial curve, poor fit]"}, {"smiles": "Cc1nc(NCCNC(=O)c2ccco2)c2c(C)c(C)sc2n1", "Potency": "inconclusive [inhibitor, single point]"}, {"smiles": "Cc1ccc(S(=O)(=O)NC(=O)Nc2c(C)cccc2C)cc1", "activity change, negative = growth inhibition": "inactive: 6.9%"}, {"smiles": "Cc1onc(C(=O)NCc2ccccn2)c1[N+](=O)[O-]", "activity change, negative = growth inhibition": "inactive: -4.03%"}, {"smiles": "CC1CCc2onc(C(=O)N3CCN(c4ccc(Cl)cc4)CC3)c2C1", "note": "(configuration not stated)", "Potency": "inconclusive [inhibitor, single point]"}, {"smiles": "CCOc1ccc(S(=O)(=O)NCc2cccnc2)cc1C(C)C", "Potency": "inconclusive [inhibitor, partial curve, poor fit]"}, {"smiles": "CC1CCCN(c2nc3ccccc3nc2C(C#N)S(=O)(=O)c2ccccc2)C1", "note": "(configuration not stated)", "Potency": "inconclusive [inhibitor, partial curve]"}, {"smiles": "COC(=O)c1c(NC(=O)c2cccc(N3C(=O)CCC3=O)c2)sc2c1CCN(C(C)=O)C2", "activity change, negative = growth inhibition": "inactive: 4.66%"}, {"smiles": "Cc1cccc(C(=O)OCC(=O)NCCN2C(=O)CSC2=O)c1[N+](=O)[O-]", "activity change, negative = growth inhibition": "inactive: 0.114%"}, {"smiles": "Cc1ccc(S(=O)(=O)c2nnn3c2nc(N2CCN(c4ccccn4)CC2)c2ccccc23)cc1", "activity change, negative = growth inhibition": "inactive: -4.25%"}]}]}
